Paper PMC6664820, “Novel natural and synthetic inhibitors of solute carriers SGLT1 and SGLT2” (Pharmacology Research & Perspectives, 2019)
About 40 (2%) of roughly 1,900 compounds showed an effect of 50% or more. The list shows a part of the results.

Molecular target: human SGLT1 (hSGLT1) (human, UniProt P13866)
Experiment: primary screen, percent of control activity; higher = less effect of the substance
Parameters: single well
Conditions: 50 µM
Outline: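 Single-point screen at 50 µmol/L in CHO-hSGLT1 cells, with 160 µmol/L 1-NBD-glucose in glucose-free DMEM for 90 min at 37°C. Fluorescence from isopropanol extracts was calibrated, and CHO wild-type uptake was subtracted. Data are percent of uptake without compound.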

Sequence of human SGLT1 (hSGLT1) (P13866 whole entry, looked up): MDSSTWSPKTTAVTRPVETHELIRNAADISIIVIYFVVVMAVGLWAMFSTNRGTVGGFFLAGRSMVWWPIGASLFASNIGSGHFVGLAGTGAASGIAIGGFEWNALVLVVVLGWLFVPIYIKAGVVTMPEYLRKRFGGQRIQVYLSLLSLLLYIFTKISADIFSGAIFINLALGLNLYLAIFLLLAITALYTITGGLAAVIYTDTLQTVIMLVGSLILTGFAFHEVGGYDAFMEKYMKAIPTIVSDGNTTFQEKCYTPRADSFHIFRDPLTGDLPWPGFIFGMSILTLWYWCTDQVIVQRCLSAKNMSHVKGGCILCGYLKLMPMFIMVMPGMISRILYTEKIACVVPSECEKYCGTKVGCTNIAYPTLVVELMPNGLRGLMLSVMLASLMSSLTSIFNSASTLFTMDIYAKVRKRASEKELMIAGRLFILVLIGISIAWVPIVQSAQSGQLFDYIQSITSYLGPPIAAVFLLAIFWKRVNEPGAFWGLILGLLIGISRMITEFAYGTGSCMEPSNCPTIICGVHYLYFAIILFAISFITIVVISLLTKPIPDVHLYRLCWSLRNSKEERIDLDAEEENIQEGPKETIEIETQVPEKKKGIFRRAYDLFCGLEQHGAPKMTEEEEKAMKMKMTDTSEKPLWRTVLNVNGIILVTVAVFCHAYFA

Row | Structure (SMILES) | NORMALIZED SGLT1 ACTIVITY (%)
1 | Nc1ccn(C2O[C@H](CO)[C@@H](O)[C@H]2O)c(=O)n1 (stereo partly drawn) | 107%
2 | CCC(=O)O[C@H]1CCC2C3CCC4=CC(=O)CC[C@]4(C)C3CC[C@@]21C (stereo partly drawn) | 69%
3 | COc1cc([C@@H]2c3cc4c(cc3[C@H](O)[C@H]3COC(=O)[C@@H]23)OCO4)cc(OC)c1OC | 99%
4 | C[C@]12CCC(=O)C=C1CCC1C2C(=O)C[C@@]2(C)C1CC[C@]2(O)C(=O)CO (stereo partly drawn) | 222%
5 | Br.COC(=O)C1=CCCN(C)C1 | 81%
6 | C#CCCCCCCCCCCCC(O)CC(O)CO.C=CCCCCCCCCCCCC(O)CC(O)CO (stereo not drawn) | 147%
7 | CCN(CC)CC(=O)Nc1c(C)cccc1C.Cl | 72%
8 | COc1cc2ccc(=O)oc2c(OC)c1OC | 257%
9 | N#C/C(=C\c1ccc(O)cc1)C(=O)O | 120%
10 | Oc1ccc2c(c1)OC[C@]1(O)Cc3cc(O)c(O)cc3[C@H]21 | 153%
11 | CC(C)=CC1C(C(=O)O)C1(C)C (stereo not drawn) | 148%
12 | COC(=O)C[C@H]1C(C)(C)C(=O)[C@@H]2CC3=C4CC(OC)O[C@@H](c5ccoc5)[C@]4(C)CCC3[C@@]1(C)C2=O (stereo partly drawn) | 105%
13 | C[C@](N)(Cc1ccc(O)cc1)C(=O)O | 94%
14 | Oc1ccc2c(c1)O[C@H](c1ccc(O)c(O)c1)[C@@H](O)C2 | 103%
15 | COc1ccc2c(=O)cc(-c3ccccc3OC)oc2c1 | 139%
16 | CN1CCCN=C1/C=C/c1cccs1.O=C(O)c1cc2ccccc2c(Cc2c(O)c(C(=O)O)cc3ccccc23)c1O | 129%
17 | O=C([O-])c1cc(=O)c2c(OCC(O)COc3cccc4oc(C(=O)[O-])cc(=O)c34)cccc2o1.[Na+].[Na+] | 101%
18 | Nc1ccc(C(=O)[O-])cc1.[K+] | 92%
19 | CCCCCC/C=C\CCCCCCCc1cccc(O)c1C(=O)O | 149%
20 | NCCc1c[nH]c2ccccc12 | 123%
21 | C=C1c2c(Cl)ccc(O)c2C(=O)C2=C(O)[C@]3(O)C(=O)C(C(N)=O)=C(O)[C@@H](N(C)C)[C@@H]3[C@@H](O)[C@H]12.O=C(O)c1cc(S(=O)(=O)O)ccc1O | 93%
22 | CCC(=O)O[C@H]1CC[C@H]2[C@@H]3CCc4cc(O)ccc4[C@H]3CC[C@]12C | 95%
23 | Oc1c(Br)cc(Br)c2cccnc12 | 50%
24 | c1cc2c(cc1[C@H]1OC[C@H]3[C@@H]1CO[C@H]3c1ccc3c(c1)OCO3)OCO2 | 185%
25 | CC1C[C@H]2CC(=O)[C@H]3CCCN4CCC[C@H]2[C@]34C1.[O-][Cl+3]([O-])([O-])O (stereo partly drawn) | 133%
26 | Cl.NCc1ccc(S(N)(=O)=O)cc1 | 120%
27 | NC(=O)c1ccccc1O | 146%

Row | Structure (SMILES) | NORMALIZED SGLT1 ACTIVITY (%)
28 | O=c1cccc2n1CC1CC2CN2CCCC[C@@H]12.[O-][Cl+3]([O-])([O-])O (stereo partly drawn) | 114%
29 | COc1cc(-c2coc3cc(OC)c(OC)c(OC)c3c2=O)cc(OC)c1OC | 193%
30 | CC(=O)O[C@@H]1CC[C@@]2(C)C(CC[C@]3(C)C2CC=C2C4CC(C)(C)CC[C@]4(C(=O)O)CC[C@]23C)C1(C)C (stereo partly drawn) | 141%
31 | C/C=C(\C)C(=O)O[C@H]1C[C@@H](OC(C)=O)[C@@]2(C(=O)OC)CO[C@@H]3C2[C@]12CO[C@](O)(C(=O)OC)[C@H]2[C@](C)(C12O[C@@]1(C)[C@H]1C[C@@H]2OC2OC=C[C@@]21O)[C@@H]3O (stereo partly drawn) | 96%
32 | CC(C)(Oc1ccc(CCNC(=O)c2ccc(Cl)cc2)cc1)C(=O)O | 113%
33 | CCOC(=O)C1=C(COCCN)NC(C)=C(C(=O)OC)C1c1ccccc1Cl.O=S(=O)(O)c1ccccc1 (stereo not drawn) | 99%
34 | CN1CCN(CCCN2c3ccccc3Sc3ccc(C(F)(F)F)cc32)CC1.Cl.Cl | 61%
35 | CCC(C)C(=O)OC1[C@@H]2CC3=C4CC(=O)O[C@@H](c5ccoc5)[C@]4(C)CCC3[C@@](C)(C2=O)[C@@H](CC(=O)OC)C1(C)C (stereo partly drawn) | 116%
36 | C[C@@H]1CC[C@H]2C(C)(C)[C@H]3C[C@@]12CC[C@@]3(C)O | 112%
37 | CN(C)CCC(c1ccc(Br)cc1)c1ccccn1.O=C(O)/C=C\C(=O)O (stereo not drawn) | 72%
38 | COC(=O)COc1cc(Cl)c(Cl)cc1Cl | 135%
39 | COc1cc(C)c(C(=O)O)c(O)c1 | 137%
40 | CO[C@H]1/C=C/O[C@@]2(C)Oc3c(C)c(O)c4c(O)c(c(/C=N/N5CCN(C)CC5)c(O)c4c3C2=O)NC(=O)/C(C)=C\C=C\[C@H](C)[C@H](O)[C@@H](C)[C@@H](O)[C@@H](C)[C@H](OC(C)=O)[C@@H]1C | 92%
41 | C=CC(C1=CC(=O)C(OC)=CC1=O)c1ccc(O)cc1 (stereo not drawn) | 321%
42 | O=C1CCCC2C3CC(CN12)[C@@H]1CCCCN1C3.[O-][Cl+3]([O-])([O-])O (stereo partly drawn) | 97%
43 | CC(=O)/N=c1\sc(S(N)(=O)=O)nn1C | 90%
44 | Nc1ccc(S(=O)(=O)Nc2ccnn2-c2ccccc2)cc1 | 99%
45 | O=C(O)CCCCC1CCSS1 (stereo not drawn) | 239%
46 | COC(=O)C[C@H]1C2(C)CC34OC5(C)O[C@@]6([C@H](OC)C(OC(=O)C(C)C)[C@]7(C)C(/C(=C(/OC)C(C)C)C(=O)O[C@H]7c7ccoc7)[C@@]6(O5)[C@H](OC)[C@@]3(OC)C2OC(C)=O)[C@]14C (stereo partly drawn) | 135%
47 | Cc1cc(C(C)(C)C)c(O)c(C(C)(C)C)c1 | 112%
48 | Cc1nc2ccccn2c(=O)c1CCN1CCC(C(=O)c2ccc(F)cc2)CC1 | 129%
49 | CC1(C)O[C@H]2CC(=O)OC[C@]23[C@H]2CC[C@@]4(C)[C@H](c5ccoc5)OC(=O)[C@H]5O[C@]54[C@]2(C)C(=O)C[C@@H]13 | 100%
50 | CCCCCCCCCCCCCCCCCCOCC(O)CO (stereo not drawn) | 96%
51 | C[n+]1c2cc(N)ccc2cc2ccc(N)cc21.[Cl-] | 169%
52 | CC1=NCCc2c1[nH]c1cc(O)ccc21.Cl | 160%
53 | COC1=C[C@@H](C)[C@@H]2C[C@H]3OC(=O)C[C@H]4C(C)=C(OC)C(=O)[C@H]([C@@]2(C)C1=O)[C@@]34C | 110%
54 | N=C(N)c1ccc(OCCCCCOc2ccc(C(=N)N)cc2)cc1.O=S(=O)(O)CCO.O=S(=O)(O)CCO | 207%
